The RNAGym collection of RNA variant scans (doi:10.1093/nar/gkz1192)
The source gives no read counts; variants with many changes may rest on few reads.

B1: CPEB3 Ribozyme (parent)
chain: UAACAGGGGGCCACAGCAGAAGCGUUCACGUCGCAGCCCCUGUCAGAUUCUGGUGAAUCUGCGAAUUCUGCUGUAUAUCUC

Variants of: B1
Assay: self-cleavage, relative activity (ratio to wild type); higher = more cleavage; in vitro, sequencing
Method in brief: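 Relative activity compares each variant's cleaved/total read fraction with that of the unmutated ribozyme. To get these fractions, barcoded CPEB3 ribozyme libraries from rounds of error-prone PCR were transcribed with T7 RNA polymerase for 5 hours at 37°C and then given 15 min of DNase I treatment before EDTA was added. The RNAs were reverse transcribed with template switching and sequenced on Illumina, and DNA sequencing linked barcodes to variants. A minimum of 5 reads applied, and three batches were averaged.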

Variant | self-cleavage
UAACAGGGGGCCGCAGCAGAAGCGCUCACGUCGCAGCCCCUGUCAGAUUCUGGUGUAUCAGCGAAUUCUGCUGUAUACCUC | 0.13
UAACAGGGGGCCGCAGCAGAAGCGCUCACGUCGCAGCCCCUGUCAGAUUCUGGUGAAUCUGCGAAUUCUGCUGUUUAUCUC | 0.4
UAACAGGGGGCCGCAGCAGAAGCGCUCAGGUCGCAGCCCCUGCCAGAUUCUGGUGAAUCUGCGAAUUCUGCUGUAUAUCCC | 0.22
UAACAGGGGGCCGCAGCAGAAGCGCUCACGUAGCAGCCCCUGUCAGAUACUGGUGGAUCUGCGAAUUCUGCUGUAUAUCUC | 0.09
UAACAGGGGGCCGCAGCAGAAGCGCUCACGUUGCAGCCCCUGUCAGACUCUGGUGAAUCUGCGAAUUCUGCCGUAUAUCUC | 0.39
UAACAGGGGGCCGCAGCAGAAGCGCUCACGUCGUAGCCCCUGCCAGAUUCUGGUGAAUCUGCGUAUUCUGCUGUAAAUCUC | 0.08
UAACAGGGGGCCGCAGCAGAAGCGCUCACGUCGCAGCACCUGUCAGAUUCUGGUGAAUCUGCGGAUUCUGCUGUAUAUCUC | 0.18
UAACAGGGGGCCGCAGCAGAAGCGCUCACGUCGCAGCCCCUGUCAGAUUUUGGUGAAUCUGCAAAUCGUGCUGUAUAUCUC | 0.04
UAACAGGGGGCCGCAGCAGAAGCGCUCACGUCGCAGCCCCUGUCAGAUUCUGGUGAAUUUGCGAAUUCUGCUGUAUAUCUC | 0.27
UAACAGGGGGCCGCAGCAGAAGCGCUCACGUCACAGCCCCUGUCAGAUUCUGGUGAAUCUGCGAGUUCUGCUGUAUAUCUC | 0.19
UAACAGGGGGCCGCAGCAGAAGCGCUCACGUCGCAACCCCAGUCAGAUUCUGGUGAAUCUGCGAAUUCUGCUGUAUAUCUC | 0.21
UAACAGGGGGCCGCAGCAGAAGCGCACACGUCGCAGCCCCUGUCGGAUUCUGGUGAAUCUGCGAAUUCUGCUGUAUAUCUC | 0.08
UAACAGGGGGCCGCAGCAGAAGCGCCCACGUCGCAGCCCCUGUCAGAUUCUGGUGAAUCUGCGAAUUCUGCUGUAUAUUUC | 0.39
UAACAGGGGGCCGCAGCAGAAGCGCUCACGUCGCAGCCCCCGUCUGAUUCUGGUGAAUCUGCGAAUUCUGCUGUAUAUCUC | 0.36
UAACAGGGGGCCGCAGCAGAAGCGCUCACGUCGCAGCCCCCGUCAGAUUCUGGUGUAUCUGCGAAUUCUGCUGUAUAUCUC | 0.06
UAACAGGGGGCCGCAGCAGAAGCGCUCACGUCGCAGCCCCUGUCAGAUACUGGUGAAUCUGCGAAUUCUGCUGUAUAUCUC | 0.17
UAACAGGGGGCCGCAGCAGAAGCGCUCACGUCGCAGCCCCUGUCAGAUUCCGGUGAAUCUGCGAAUUCUGCUGUAUAUCCC | 0.26

Variant | self-cleavage
UAACAGGGGGCCGCAGCAGAAGCGCUCACGUCGCAGCCCCUGUCAGAUUCGGGUGGAUCUGCGAAUUCUGCUGUAUAUCUC | 0.17
UAACAGGGGGCCGCAGCAGAAGCGCUCACGUCGCAGCCCCUGUCAGAUUCUGGAGAAUCUGCGAUUUCUGCUGUAUAUCUC | 0.08
UAACAGGGGGCCGCAGCAGAAGCGCUCACGUCGCAGCCCCUGUCAGAUUCUGGUGAAUCCGCGAAUUCUGCUGUAUAUCUC | 0.36
UAACAGGGGGCCGCAGCAGAAGCGCUCACGUCGCAGCCCCUGUCAGAUUCUGGUGAAUCUGCGAAAUCUGCUGUAUAUCUC | 0.18
UAACAGGGGGCCGCAGCAGAAGCGCUCACGUCGCAGCCCCUGUCAGAUUCUGGUGAAUCUGCGAAUCCUGCUGUAUAUCUC | 0.36
UAACAGGGGGCCGCAGCAGAAGCGCUCACGUCGCAGCCCCUGUCAGAUUCUGGUGAAUCUGCGAAUUCUGCAGUAUAUCUC | 0.04
UAACAGGGGGCCGCAGCAGAAGCGCUCACGUCGCAGCCCCUGUCAGAUUCUGGUGAAUCUGCGAAUUCUGCUGUAUAUCAC | 0.1
UAACAGGGGGCCGCAGCAGAAGCGGUCACGUCGCAGCCCCUGUCAGAUUCUGGUGAAUCUGCGAGUUCUGCUGUAUACCUC | 0.08
UAACAGGGGGCCGCAGCAGAAGCGGUCACGUCGCAGCCCCUGUCAGAUCCUGGUGAAUCUGCGAAUUCUGCUGUAUAUCUC | 0.43
UAACAGGGGGCCGCAGCAGAAGCGUACGCGUCGCAGCCCCUGUCCGAUCCUGGUGAAUCUGUGAAUUCUGCCGUAUAUCUC | 0.02
UAACAGGGGGCCGCAGCAGAAGCGUACACGUCGCAGCCCCUGUCAGAUUCUGGUGGAACUGCGAAUUCUGCUGUGUAUCCC | 0.1
UAACAGGGGGCCGCAGCAGAAGCGUACACGUCACAGCCCCUGCCAGAUUCUGGUGAGUCUGUGUAUUCUGCUGUAUAUCUC | 0.09
UAACAGGGGGCCGCAGCAGAAGCGUACACGUCGCAGCCCCUGUCAGAUUCUGGUGAAUCUACGAAUACUGCUGUAUAUCUC | 0.18
UAACAGGGGGCCGCAGCAGAAGCGUACACGUCGCAGCCCCUGCUAGAUUCUGGUGAAUCAGCGAGUUCAGCUGUAUAUCUC | 0.07
UAACAGGGGGCCGCAGCAGAAGCGUACACGUCGCAGCCCCUGCCAGAUUCUGCUGAAUCUGCGCAUUCCGCUGUAUAUCUC | 0.21
UAACAGGGGGCCGCAGCAGAAGCGUACACGUCGCAGCCCCUGCCAGAUUCUGGUGAAUCUGCGAAUUCUGCUUUAUAUCUC | 0.56
UAACAGGGGGCCGCAGCAGAAGCGUACACGUCGCAGCCCCUGUCAGAUUCAGGUGAACCUGCGAAUUCUGCCGUAUAUCUC | 0.15
